# Reference: the supplement of paper PMC11417369
# The list shows a part of the results.
# Tested on: PfAP2-HC AP2 domain (GST-tagged)
# Assay: gcPBM binding intensity (ln(normalized median fluorescence intensity)); higher = stronger DNA binding
# Procedure, shortened: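 GST-fused DNA-binding domains of P. falciparum, expressed in E. coli, were applied at about 25 μg on average for 1 h to an Agilent 4 × 180k array of primer-extended double-stranded 36-bp intergenic genomic probes and negative controls. Binding intensity is the highest Masliner-normalised natural-log median intensity across replicate spots of either probe orientation, measured with Alexa488 anti-GST antibody and a 488 nm scan.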
row,Sequence,gcPBM binding intensity (ln)
1,ATAACAAAATAAAACACACACACAAATGTACCTATA [CACACA_site7190],10.8
2,TATTTATAAATATAAACACACAACATTATATGCATA [CACACA_site5748],9.75
3,TACATATTTGTATATGCACACATAAATTTTTCCATT [CACACA_site9148],9.82
4,AAATATTTATACCACACACACATACCTCTATTTGTA [CACACA_site6957],10.7
5,AATGGATTAGCTAGCACACACAAAAAAAAAAAAAAA [CACACA_site3031],9.69
6,TTTTTTTTTTTTTAATGTACCCATGGGCACATAGGT [XGTACX_site486],9.26
7,TAAATATAGGGTAATAGTACATAATTATATTCTTTT [XGTACX_site3883],9.64
8,TATATTTATATATTAGTGCACTTTTTGTTAATTTTT,9.78
9,ACAGTATAAAAATAAGCACACACACTAATATATATT [CACACA_site8212],10.7
10,TAAAATATATTTTTCTGTACACAAAAATATATTAAA [XGTACX_site2813],9.31
11,TATATATTAATATATGCATGTTAATATATTATGAAA [TGCATGCA_site61],9.53
12,TAAGTTTGTGCAAGTGGTACATATATATAAATTTAT [XGTACX_site5944],9.64
13,TGATTATAGACACGCGCACACACAACAAAAAAAAAA [CACACA_site9179],10.1
14,TTTACATAAACTGGTAGTACATAATATGGCTTAAAA [XGTACX_site5002],9.51
15,TTAGCAACTATTACTACACACATTTGTATTTAATTT [CACACA_site4961],9.91
16,TAATAATAATTAAAATGAGATAAATAAATATATATA [TGCATGCA_negctrl_site322],9.44
17,TCTTTATATCATCTTTCTAAATATATATATATATAA [CACACA_negctrl_site77],9.57
18,TTATATATTTATAAATGTACGTATAAGAATTTAATT [XGTACX_site8541],9.37
19,CTATTAATGTACTCTACACACATATAAGAGGACATT [CACACA_site471],9.61
20,AATGTAAAACGAAATGCACACTATGGAAAATATAAA [CACACA_site4559],10.1
21,AAAAATAAAAATGAGTGTACTTTAAGCCCTACACTT [XGTACX_site828],9.59
22,TATAATATTATAGTTTGTACGAAAATAATATATTTA [XGTACX_site8673],9.31

row,Sequence,gcPBM binding intensity (ln)
1,TTTTACTATGATATTTATATATCTATATATGTATAT [XGTACX_negctrl_site499],9.74
2,AACCAAAATTTTTGTCGTACAAAAGAGCAAATGTAG [XGTACX_site6472],9.72
3,GAATTATATACTTATTGTACAAAAAAAAAAAAAAAA [XGTACX_site3193],9.14
4,TATTCCCCCCAACACACACACACACCGACATACCAC [CACACA_site8723],11.5
5,ATAAACATGTATATATTAAAAAAAAAAAAAAAAAAT [CACACA_negctrl_site92],9.68
6,TTATTTATATATTGCCCACACACATGTGATTATTTA [CACACA_site1715],10.4
7,AATATTTTTTGTTTTACACACATATATAAATATATA [CACACA_site3602],9.79
8,TATAATATATATGTATGTACGTATGTATGATTTTGT [XGTACX_site1164],9.7
9,AAGAAAAATTCTTCACGTACAAATAATTATATATAT [XGTACX_site7217],9.53
10,GCAAGGTCCACACTGGTGCATTAAAAATAAAATATA [GTGCAC_site9956],9.3
11,TTTTTTAAATATATATGTACATATATCTATATATAT [XGTACX_site3461],9.98
12,TTTATAATTTATAGGCGGACAGGAAAATTTTATAAA [XGTACX_site6955],9.21
13,AAATTACAAATAAAATGTACTCATGTTTTTATTATA [XGTACX_site7223],9.48
14,TTTTTAATTTTTTTCACACATATATAAATACAAATA [CACACA_site5530],9.48
15,TGAACAGGTCATAATTTACACACTATATATTTTATT [CACACA_site8123],10
16,TACAGGAATATTTTTACACACTAAAAGTTATAAACT [CACACA_site6876],9.64
17,TTTTTCTTTTTTTGTTGTACATTTTGTAATATTTAC [XGTACX_site4102],9.78
18,TTTCTTATATTATATAAATATATAGATGTTAATGGT [CACACA_negctrl_site706],9.5
19,AATATAATATAATGCACACATAAAAAAAAAAAAAAA [CACACA_site304],9.67
20,TATTACAAAAATGTGTTATTATATAAACGTATAGAG [XGTACX_negctrl_site529],9.71
21,ATTTTTTTTTTTTTTTTTAATTTATGTTGTTATTTT [CACACA_negctrl_site944],9.76
22,GTAAAATAAATAATATAAATAAAATGAAATGAAACA [TGCATGCA_negctrl_site519],9.89

row,Sequence,gcPBM binding intensity (ln)
1,AAGTTTAAAGGAATTACACAAACAAGCAAATATATA [CACACA_negctrl_site857],9.74
2,ATTATATAATAATAAAGTACTAATATTTTTAAAAGA [XGTACX_site235],9.53
3,TAATATATTAAAAGAAGTACATTTCTGATTTAATAG [XGTACX_site6403],9.45
4,ATATATATATATATAGTGCAAATAAAAAATAGACAA [GTGCAC_site9796],9.92
5,GAACCGTTTTTATGTAGTACATATGTATATATATAT [XGTACX_site1577],9.89
6,TTAATATTAAAATATAAACACACAAAATTCAATTAT [CACACA_site9262],9.72
7,AGTAAATATATTATATGTACGTATCATAAAATATAT [XGTACX_site1567],9.61
8,TATTTGTATATTCATTCCTGTATTCCCTTTTTTGTA [CACACA_negctrl_site1236],9.8
9,ATATATATATATGTATGTACATAATATTTTTTTTAT [XGTACX_site5551],9.97
10,TGTACGTTTTTTAACACACACACAAAAAAAAAAAAA [CACACA_site6006],9.84
11,ATACCATATAATTATGTGAGAAAATATAATATTCAT [CACACA_negctrl_site310],9.67
12,ATTTTCTTAAATAAATGTACATGGCATTAAAAGTAA [XGTACX_site5119],9.59
13,AAATAAAATCATGAATGTACACAAAAATTATTGCAA [XGTACX_site5691],9.67
14,TTTGAAGGAAGGGGGGGAGGGGCCATAACAAAGGAA [GTGCAC_negctrl_site408],9.62
15,TTAAATATCCATATTTCACACATTTCGATATATATA [CACACA_site4208],9.6
16,ACTGTACTATAAAATACACACATATAAATATAAATA [CACACA_site3009],9.99
17,TATTTTAGAGAAAAAAATAAATTACAAAATGTTAGG [CACACA_negctrl_site1645],9.41
18,ATAATGTCATAATTATATCCTTTGGCATAAAATAAA [XGTACX_negctrl_site574],9.49
19,CCTAAATAAATGGACACACACATATTTATATTTATA [CACACA_site6789],10.4
20,GAATGTAAATATTAAAGTACACAGAATATATCTTCA [XGTACX_site8149],9.64
21,TATAATATTATATAATGTACGCATTTATTATTTAAA [XGTACX_site8326],9.48
22,TGAACCCACAAATCACGTACATATATATACACGTGT [XGTACX_site7739],9.74

row,Sequence,gcPBM binding intensity (ln)
1,TTTAACAACTATTTCTGTACACATTTTTATATAATT [XGTACX_site4917],9.88
2,ATATACATTTTAAATTTTAATGTAACCCATGGGAGA [CACACA_negctrl_site588],9.58
3,ATTTATATTATGAGGAGTACAATACTTATAGATGTA [XGTACX_site7510],9.59
4,ATAAATAACTTTTAAATACACACGTAAAATATATTG [CACACA_site3302],9.67
5,AAAAAAGATATATAAACACACATATTTATATACACA [CACACA_site6866],10.1
6,GATAGACACGTGCACACATGCAATACTTTATTCAGT [TGCATGCA_site778],10.3
7,TATATACGTAATAGTAGTACTTTAAAATGCGGAAAT [XGTACX_site4597],9.92
8,TGTACGAGTCGTAGAGTGCAGTCTGGAGAAACGTAC [GTGCAC_site9682],9.76
9,AAAGAAAATTAAAAAGAACACACAAATATATATATA [CACACA_site9196],9.9
10,ATTTATATATATTTATGTACGTATTAATTTTTTTTT [XGTACX_site3877],9.77
11,AATGAATCCTTATATACACACATTATTATAGTATAG [CACACA_site7454],9.81
12,ATTATTTGTAATATAACACACACAAAAAAAGACTCG [CACACA_site8487],10.1
13,TCTTTATCCTTTCTCTTTTTATTAATTATAATATTC [TGCATGCA_negctrl_site584],9.68
14,ATTATACCGTATTTTGCATGTAGTATTTTCATTTTA [TGCATGCA_site1021],9.81
15,ATTAATTATGTATTTCAACAAAGAAGTGTTATATAT [GTGCAC_negctrl_site215],9.59
16,ATATATACCTAAGACACACACATATATATATATATA [CACACA_site764],10.5
17,AAGGAAAATATTAACTGTACATATAAAATATATATA [XGTACX_site5310],9.66
18,AAATGTACAGGACGCACACACATATATATATATATA [CACACA_site3674],9.97
19,TATCATTTATATATGTGTACTTATTTATTTATTTAT [XGTACX_site7961],9.81
20,AAATGAATTTAACAATGTACACATATATTATAAATA [XGTACX_site1449],9.59
21,ATATATATATGTATATGTACTCATTCTTCTGTGTTT [XGTACX_site5014],9.84
22,ATATACATTCTATATACATGCATACTTCATTTTGTG [TGCATGCA_site966],9.79
